Source: the supplement of paper PMC11417369
± gives the standard deviation of the averaged measurements. The list shows a part of the results.

What follows are sequences tested on PfAP2-LT AP2 domain (GST-tagged) (assay: gcPBM binding intensity (ln(normalized median fluorescence intensity)); higher = stronger DNA binding).
Method in brief: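 GST-fused DNA-binding domains of P. falciparum, expressed in E. coli, were applied at about 25 μg on average for 1 h to an Agilent 4 × 180k array of primer-extended double-stranded 36-bp intergenic genomic probes and negative controls. Binding intensity is the highest Masliner-normalised natural-log median intensity across replicate spots of either probe orientation, measured with Alexa488 anti-GST antibody and a 488 nm scan.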

| Sequence | gcPBM binding intensity (ln) |
| --- | --- |
| TCTATTATCCTTTGCACACAAAATAAATGAAAAAAT [CACACA_site3029] | 8.88 ± 0.36 |
| ATATAAGTTTTTTCTCAAAAAGTATAACGAGCATGA [CACACA_negctrl_site1375] | 8.6 ± 0.4 |
| AAACAACAAAAATGATATATATAAAATTTATAATAT [XGTACX_negctrl_site185] | 8.74 ± 0.45 |
| ATGCATAAAAGAAATACACACATAAATATATAAATA [CACACA_site2163] | 9.12 ± 0.35 |
| TATGGATTACACAATTGTACAAGAAAAATGTAAATA [XGTACX_site4040] | 8.88 ± 0.51 |
| TGTCATGATACATACACACACATACACATACACATA [CACACA_site2135] | 9.71 ± 0.29 |
| TTTTTTTCATAATATACACACAAAAAAAAAAAAAAA [CACACA_site3224] | 8.46 ± 0.19 |
| TATACTCATATATAAACACACAAAAAAAAAAAAAAA [CACACA_site5165] | 8.72 ± 0.45 |
| ATATATATATATATGTGTACATATATATATCATATG [XGTACX_site3126] | 9.57 ± 0.071 |
| TTTCCCTACCAAAAGTGTACTTATACATATTTTTAT [XGTACX_site5495] | 8.84 ± 0.41 |
| ATACGAAAATATTTTGCACACTATAATTATTCATAT [CACACA_site1765] | 9.08 ± 0.38 |
| AAAAAAAAAAAAAAAGTGCATTAATAAATTTTAATA | 8.32 ± 0.53 |
| ACATCTATGTATAATACACACACTAATATATAATTG [CACACA_site5134] | 9.4 ± 0.28 |
| ACATATTATTCTTCTTGTACACATAAATTTTATAAA [XGTACX_site299] | 8.7 ± 0.42 |
| ATGACGTAGTGGTGTACACACATGGTACCTTTATTC [CACACA_site1547] | 9.37 ± 0.42 |
| AAAAAAATATTCAAAGCATGCCTATTTACACATATT [TGCATGCA_site806] | 8.91 ± 0.51 |
| TCTTATAATTTACCTACACACAGGAAATATATAAAT [CACACA_site294] | 8.77 ± 0.38 |
| ACACAATGTAGTGTATAAATACAATAAAAGGTTGTA [TGCATGCA_negctrl_site251] | 9.4 ± 0.59 |
| TCAGAAATATTACAAAGTACATGCAACGAAAATTTC [XGTACX_site5061] | 8.87 ± 0.35 |
| TGATATTTAAATTTTGCACACGCATATGAAATTAGG [CACACA_site1034] | 8.96 ± 0.29 |
| ATAAATATTATTTTACGTACATATTTATGAAGTATT [XGTACX_site8746] | 8.67 ± 0.35 |
| AAATTATAAAAATGTAGTACAGACAATATATTCGTA [XGTACX_site8307] | 8.93 ± 0.45 |
| CAGGAGAGAAAATATCGTACAAGCAAAAATAAGTGG [XGTACX_site8557] | 9.06 ± 0.48 |

| Sequence | gcPBM binding intensity (ln) |
| --- | --- |
| GTTTATATGTTCATAGTGCATATATGTTGATTTATT | 9.03 ± 0.39 |
| TTTTTTTTTTTTTACTGTACTTAATAAGATTGAATA [XGTACX_site2384] | 8.29 ± 0.42 |
| TATAAAAAAAAAAAAAAAAAAAAAAAAAAAAAAAAA [TGCATGCA_negctrl_site42] | 7.89 ± 0.22 |
| TATTATTTTAAGATTGTTTATGTAAAGAATTATGAA [CACACA_negctrl_site445] | 8.09 ± 0.35 |
| AAATTATATACCACAGTGCAAAAGGCAGGTATACGT | 9.24 ± 0.41 |
| TGTGTATATATGCTGGTGCAACTTTAAAAAATAATC | 8.71 ± 0.42 |
| GTAGAGAAAAAAATGTGGACACAAAAAATAAAAAGG [XGTACX_site4058] | 8.96 ± 0.45 |
| TATATTGCAAAAAGTACACACATAAATAAATACATA [CACACA_site6589] | 9.13 ± 0.45 |
| TTTTTTTTTTTTTGCACACACATATATAAATATATA [CACACA_site3949] | 9.15 ± 0.39 |
| AGTAGTCTGGAGAAGAGTACATAGTATCTGGTAGCT [XGTACX_site2017] | 8.91 ± 0.46 |
| CTACACACTTATAAATGTACAGGATTTAAGTATATG [XGTACX_site8245] | 8.86 ± 0.38 |
| TATTTATTTATTTTGTTATAATTAAAATGGATACAT [XGTACX_negctrl_site387] | 8.46 ± 0.45 |
| TAACTTAATAAAAAAAGTACATATATTTTTAATAAA [XGTACX_site2707] | 8.23 ± 0.52 |
| AGTGAATATTACGAAACACACAAAAAAATACATTTC [CACACA_site511] | 9.09 ± 0.38 |
| AAATATAATAATACATTGCACATATATTATATATAT [TGCATGCA_negctrl_site611] | 8.79 ± 0.39 |
| TGTAATAATCTTCATTTCTTTTTTTTTTTTTTTTGT [CACACA_negctrl_site1388] | 8.37 ± 0.66 |
| TTTTGATATATGAATATTAAGTTATATAATATTTTA [TGCATGCA_negctrl_site39] | 8.28 ± 0.43 |
| TATATATATAAATACACACACACAAAAAAAAAAAAA [CACACA_site4930] | 9.61 ± 0.31 |
| AATTTAATTGTGAGAGTGCGTACTGCTCCACATATA | 8.71 ± 0.39 |
| ATGTGTTTGTATATATGTACATATTTATGTTATTTC [XGTACX_site6960] | 9.29 ± 0.47 |
| AAAAAAAAAAAAAAAAAAAAAAAAAAATGAGATACA [GTGCAC_negctrl_site160] | 8.76 ± 0.16 |
| ATCTTATCATTTTAAAGTACATAATTAATTCTTTTT [XGTACX_site3999] | 8.66 ± 0.49 |
| TATAACAAATAAAAATGTACATATATATAATATATA [XGTACX_site6173] | 8.79 ± 0.43 |

| Sequence | gcPBM binding intensity (ln) |
| --- | --- |
| ATAATACCAGAATAGATTTAAATGAATATTTTATTT [CACACA_negctrl_site476] | 8.52 ± 0.58 |
| ATGATATATTTAATAGTGCACTAATTAAAATTATTA [GTGCAC_site9418] | 8.6 ± 0.41 |
| AAAAGGATATATGAAAGTACAAAGGTATAGTATATT [XGTACX_site7385] | 9.14 ± 0.54 |
| TACAGTAAAAATAGTTGTACTTGTTTATTTCTTCTT [XGTACX_site7674] | 8.62 ± 0.38 |
| TAAAATATAATGATCACACATATAAACAAGTGGGTA [CACACA_site4651] | 8.95 ± 0.44 |
| TATTCTAGAATTTTAACACACAAGAATATAAACTTT [CACACA_site6757] | 8.65 ± 0.36 |
| ATTTTTAAATACAGTACACACATGGGTTTAAATTAT [CACACA_site2884] | 8.86 ± 0.39 |
| TCCTATAAACAAATTTGTACATATAAGAATATATTC [XGTACX_site3892] | 8.57 ± 0.39 |
| GGTTATATGATAGGATGTACAATTAAAAGTAAATAT [XGTACX_site5083] | 8.87 ± 0.48 |
| GATTATTTTAGAAGTACACACATTTATATATAATAA [CACACA_site5429] | 8.69 ± 0.45 |
| TATTTATATTTATATACACACATATATACCTATATA [CACACA_site7820] | 8.97 ± 0.47 |
| TATAAACGCACCTACACACACAACGTAAATGCATTG [CACACA_site7120] | 9.55 ± 0.26 |
| TATTCAAAACGGTATTGTACAAATTTTATAATTTAA [XGTACX_site6928] | 8.49 ± 0.36 |
| TGAACATTATAGAAAAGTACTTAGTTTTTAAAAAGA [XGTACX_site6864] | 8.56 ± 0.47 |
| TATGGATAAATAAATACACACATAAATTTAAATATA [CACACA_site1282] | 8.96 ± 0.49 |
| GCCGCACCCAGATACGCACACAAGAAAAAAATATTC [CACACA_site3456] | 9.02 ± 0.49 |
| CACACGCACAGACACACACACACACGGATATAAATA [CACACA_site6301] | 10.2 ± 0.38 |
| TTTTTTTTTTTTTTTTGTACATATAAAAATACGTAA [XGTACX_site6003] | 8.32 ± 0.26 |
| TCACTACATTTTGGACGTACACAACTTGATATATTG [XGTACX_site4775] | 9.09 ± 0.4 |
| AAATCTTAACTCTATGCACACATAAAAGTATATAAA [CACACA_site8709] | 8.79 ± 0.38 |
| ATGATATACTTGAGTGTGCACAAACTATTACTTACA | 9.27 ± 0.54 |
| ATTTTGATGATGTATGCACACATTGAAAATGAGAAA [CACACA_site2916] | 8.97 ± 0.57 |
| ACAACATATGTTATCACACACATATAAATATAAATA [CACACA_site7038] | 9.26 ± 0.42 |

| Sequence | gcPBM binding intensity (ln) |
| --- | --- |
| ATATATATATATATATGTACATATTTGATTTTTCTT [XGTACX_site8171] | 9.69 ± 0.13 |
| TATATATCGCCCTTCACACACACACGGATATAAATA [CACACA_site7221] | 9.64 ± 0.2 |
| ATAATAAATATATAATGTACATATTATGTTCTTTAT [XGTACX_site8655] | 8.76 ± 0.37 |
| CGCTCTTATAAATGTTGTACATAAAACTGTTCATTA [XGTACX_site3409] | 8.62 ± 0.49 |
| ATCGGTAATATTAACACACACATTTATATATATTTA [CACACA_site1084] | 9.19 ± 0.37 |
| TTTTGTAGATATTGAAGTACAAAAAAAATGTAAAAG [XGTACX_site5905] | 8.72 ± 0.49 |
| TTTTTTAATATATTATTATAAATATTTTTTATGTGT [GTGCAC_negctrl_site712] | 8.6 ± 0.58 |
| CATAATGTAAATAAGTGTACACATATATAATACATA [XGTACX_site3108] | 9.15 ± 0.35 |
| ATGCGTTAATCTATATATATTATGTATAGATTTTCA [CACACA_negctrl_site1650] | 8.82 ± 0.39 |
| AACATATTTATGATGTGTACCTACATAATAGAATTT [XGTACX_site141] | 8.81 ± 0.41 |
| CTCTACGAATTCATAGTGCAAAGAGCTAATTTTTTC [GTGCAC_site9710] | 8.53 ± 0.38 |
| TCTTTTATGATATTTACACACAAACGTGAGATAGCT [CACACA_site2312] | 9.06 ± 0.3 |
| AACATTATGTTTATTTGTACATATAAATATATGTAA [XGTACX_site7389] | 8.49 ± 0.4 |
| GATCATTCAGTTTTATCACACACAATCAAACATATA [CACACA_site8882] | 9.06 ± 0.4 |
| ATATTTTGATAATATTGTACAAAAACATTAAAATGT [XGTACX_site8361] | 8.6 ± 0.4 |
| TATTTAATTACATGAACACACATTATATATTTTTAA [CACACA_site5615] | 8.55 ± 0.45 |
| TATATATATATGTGCACACCAATTGTATGTAATATA [CACACA_site3889] | 9.32 ± 0.2 |
| TTTATATTATTAGAAACACACATTAGATTAAAATTA [CACACA_site3286] | 8.3 ± 0.42 |
| TACATAATAACATGTACACACATTCTTCTATAAATG [CACACA_site4061] | 8.95 ± 0.38 |
| CATTAAAAAGAAAGTTCACACACATATATATGACGG [CACACA_site8836] | 9.17 ± 0.44 |
